According to the supplement of paper PMC12645437, “Orthogonal IMiD-Degron Pairs Induce Selective Protein Degradation in Cells” (ACS Chemical Biology, 2025):
The other results are listed elsewhere or left out.

Biological target: no compound (DMSO)
Assay: log2 fold change of degron read counts, EGFP-low vs EGFP+ sorted cells; higher = lower degron-EGFP level without compound (poor expression or instability)
Details: compound: DMSO control; 18 h
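Also: jurkat cells carrying a lentiviral library of mutant zinc finger degrons fused to EGFP plus mCherry, mCherry+ cells FACS sorted, degron abundance counted by next-generation sequencing.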

| Sequence | log2 fold change of degron read counts |
| --- | --- |
| FWCNQCGAEFTQKGNLLRHIKL | -0.115 |
| FTCPICGRNFTQKGNLLRHIKL | -0.493 |
| FYCDVCGACFTQKGNLLRHIKL | -0.779 |
| FECNQCGHPFTQKGNLLRHIKL | -0.259 |
| FACDVCGAFFTQKGNLLRHIKL | -1.78 |
| FDCPVCGATFTQKGNLLRHIKL | -1.14 |
| FDCDVCGAQFTQKGNLLRHIKL | -1.29 |
| FHCPICGAHFTQKGNLLRHIKL | 0.189 |
| FSCEICGHVFTQKGNLLRHIKL | -0.769 |
| FHCPQCGANFTQKGNLLRHIKL | -0.583 |
| FSCPVCGAQFTQKGNLLRHIKL | -0.543 |
| FTCEICGRMFTQKGNLLRHIKL | -0.668 |
| LLCEICGFQCTQKGNLLRHIKL | 0.00543 |
| FTCSVCGHCFTQKGNLLRHIKL | -0.767 |
| FCCNICGACFTQKGNLLRHIKL | 0.0251 |
| FECNVCGACFTQKGNLLRHIKL | -1.97 |
| FCCEICGHDFTQKGNLLRHIKL | -1.21 |
| FECDVCGAFFTQKGNLLRHIKL | -1.99 |
| FICPICGHEFTQKGNLLRHIKL | -0.396 |
| FKCDVCGAGFTQKGNLLRHIKL | -1.83 |
| FQCPICGAGFTQKGNLLRHIKL | 0.00668 |
| LWCNQCGFYCTQKGNLLRHIKL | 2.55 |
| FWCNVCGAIFTQKGNLLRHIKL | 1.45 |
| LGCNQCGFFCTQKGNLLRHIKL | 1.68 |
| FRCEICGAEFTQKGNLLRHIKL | -2.75 |

| Sequence | log2 fold change of degron read counts |
| --- | --- |
| LVCNQCGFGCTQKGNLLRHIKL | 0.306 |
| FKCPICGAEFTQKGNLLRHIKL | -0.435 |
| FECEICGRRFTQKGNLLRHIKL | -1.71 |
| FECPICGANFTQKGNLLRHIKL | -0.55 |
| FGCEVCGAFFTQKGNLLRHIKL | -0.954 |
| FSCEICGACFTQKGNLLRHIKL | -2.2 |
| FTCNVCGAAFTQKGNLLRHIKL | 0.101 |
| FQCDQCGAPFTQKGNLLRHIKL | -2.13 |
| FSCDICGAIFTQKGNLLRHIKL | -0.78 |
| FLCDICGALFTQKGNLLRHIKL | -0.0437 |
| FMCEVCGAAFTQKGNLLRHIKL | -1.33 |
| FYCNQCGRQFTQKGNLLRHIKL | 0.061 |
| FRCEICGRQFTQKGNLLRHIKL | -0.812 |
| FECPQCGACFTQKGNLLRHIKL | -1.42 |
| LRCEICGFKCTQKGNLLRHIKL | -0.474 |
| FTCEVCGADFTQKGNLLRHIKL | -2.4 |
| FRCNQCGACFTQKGNLLRHIKL | -0.606 |
| FNCDICGAQFTQKGNLLRHIKL | -0.99 |
| FVCDVCGAVFTQKGNLLRHIKL | -0.95 |
| LICPICGFWCTQKGNLLRHIKL | 1.75 |
| FVCEICGRCFTQKGNLLRHIKL | -1.52 |
| LSCPICGFLCTQKGNLLRHIKL | 1.05 |
| FGCEQCGAYFTQKGNLLRHIKL | -0.41 |
| FICPICGRIFTQKGNLLRHIKL | 0.92 |
| LRCNQCGFKCTQKGNLLRHIKL | 0.964 |
